# The campaign covered roughly 39,000 compounds. About 220 (0.56%) showed activity. The list shows a part of the results.
# Test system: Escherichia coli K-12 BW25113
# Experiment: relative growth (OD600 normalised to plate interquartile mean) (fraction); higher = less growth inhibition, active = 0.2 or less
# Details: 50 µM; LB; incubation time: overnight (16-24 h)
# 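Note: static incubation at 37 °C against the wild-type strain, values averaged over two biological replicates.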
row,SMILES,relative growth
1,C[C@@H]1CN([C@@H](C)CO)C(=O)c2cc(NC(=O)CCN3CCOCC3)ccc2O[C@@H]1CN(C)CC1CCCCC1,inactive: 1
2,C=CCOC(=O)[C@@H]1[C@H]2C(=O)O[C@H](c3ccccc3)[C@H](c3ccccc3)N2[C@H](c2ccc(OCCOC(=O)[C@H]3C[C@H]4C(=O)N[C@@H](CCCCNC(C)=O)C(=O)N4[C@H]3c3cccc(OCCO)c3)cc2)[C@@]12C(=O)Nc1ccc(I)cc12,inactive: 1.04
3,OCc1cc2c(F)cccc2s1,inactive: 0.995
4,C[C@H](N[C@@H](CCc1ccccc1)C(=O)O)C(=O)N1CCC[C@H]1C(=O)O,inactive: 0.988
5,C[C@H]1CCCCO[C@H](CN(C)Cc2ccc(C(=O)O)cc2)[C@@H](C)CN([C@@H](C)CO)C(=O)c2cc(NC(=O)Nc3ccc4c(c3)OCO4)ccc2O1,inactive: 1.03
6,COCCNC(=O)[C@@H]1[C@@H](CO)[C@@H]2Cn3c(cccc3=O)[C@H]1N2S(=O)(=O)c1ccccc1C,inactive: 0.991
7,NCC1CCOCC1,inactive: 1.02
8,COc1ccc(S(=O)(=O)N(C)C[C@@H]2OCc3cnnn3CCCC(=O)N([C@@H](C)CO)C[C@H]2C)cc1,inactive: 0.946
9,NC(=O)C1CCN(C(=O)c2ccc(NC3=N[C@H]4CS(=O)(=O)C[C@@H]4S3)cc2)CC1,inactive: 1.01
10,Cc1noc(C)c1S(=O)(=O)Nc1ccc2c(c1)C(=O)N([C@H](C)CO)C[C@H](C)[C@@H](CN(C)S(=O)(=O)c1cn(C)cn1)OCCCC[C@@H](C)O2,inactive: 0.991
11,C[C@@H]1CN([C@@H](C)CO)C(=O)c2cc(NC(=O)Nc3cccc4ccccc34)ccc2O[C@@H]1CN(C)S(=O)(=O)c1ccc(Cl)cc1,inactive: 1.02
12,CN(C)CC(=O)N[C@H]1CC[C@H](CCNC(=O)C2CCC2)O[C@H]1CO,inactive: 1
13,CCCn1c(=O)c(C#N)cn(C2CC2)c1=O,inactive: 0.986
14,COc1cc(OC)c2c(=O)c(OC)c(-c3ccccc3)oc2c1,inactive: 1.02
15,COCC(=O)N1CC[C@]2(CC1)CN(Cc1ccc3c(c1)OCO3)[C@H](CO)c1c2c2ccc(cc2n1C)OC,inactive: 1.01
16,C[C@H](CO)N1C[C@H](C)[C@H](CN(C)C)Oc2ccc(NS(=O)(=O)c3cn(C)cn3)cc2CC1=O,inactive: 1.01
17,S=C(Nc1ccccc1)Nc1ccc2c(c1)oc1ccccc12,inactive: 0.966
18,COc1cccc(S(=O)(=O)N(C)C[C@H]2Oc3ncc(-c4cccc(C(=O)N(C)C)c4)cc3C(=O)N([C@H](C)CO)C[C@H]2C)c1,inactive: 1.02
19,C[C@H](CO)N1C[C@H](C)[C@H](CN(C)S(C)(=O)=O)Oc2ccc(NS(=O)(=O)c3ccc(Cl)cc3)cc2CC1=O,inactive: 0.982
20,CN1CCN(C(=O)C[C@H]2CC[C@H]3[C@@H](COC[C@H](O)CN3C(=O)C3CCOCC3)O2)CC1,inactive: 1.01
21,Cc1noc(C)c1S(=O)(=O)N(C)C[C@H]1Oc2c(NS(=O)(=O)c3cn(C)cn3)cccc2C(=O)N([C@H](C)CO)C[C@H]1C,inactive: 0.992

row,SMILES,relative growth
1,O=C(Nc1cc(C(F)(F)F)cc(C(F)(F)F)c1)Nc1cnn(-c2ccc([N+](=O)[O-])cc2)c1C(F)(F)F,inactive: 0.964
2,COc1ccc(S(=O)(=O)Nc2ccc3c(c2)C(=O)N([C@H](C)CO)C[C@@H](C)[C@H](CN(C)C(=O)Nc2ccc(F)cc2)OCCCC[C@@H](C)O3)cc1,inactive: 0.991
3,COCCOc1ccc(N2CCN(CCn3ncc4c3nc(N)n3nc(-c5ccco5)nc43)CC2)cc1,inactive: 1.01
4,Nc1nc2nc[nH]c2c(=S)[nH]1,inactive: 0.945
5,C[C@@H]1CN([C@@H](C)CO)C(=O)c2cc(C#CC3CCCCC3)cnc2O[C@@H]1CN(C)C(=O)Cc1ccccn1,inactive: 1
6,CN1CCN(C(=O)C[C@@H]2C=C[C@H](NC(=O)c3ccc4c(c3)OCO4)[C@H](CO)O2)CC1,inactive: 0.998
7,C[C@@H]1CCCCO[C@H](CN(C)Cc2ccc3c(c2)OCO3)[C@H](C)CN([C@H](C)CO)C(=O)c2cc(NS(=O)(=O)c3cccs3)ccc2O1,inactive: 1.01
8,C[C@@H]1CN([C@@H](C)CO)C(=O)c2cc(NC(=O)Nc3cccc4ccccc34)ccc2O[C@@H]1CN(C)S(=O)(=O)c1ccccc1,inactive: 1.04
9,C[C@@H]1CN([C@H](C)CO)C(=O)Cc2cc(NC(=O)C3CC3)ccc2O[C@H]1CN(C)C(=O)Nc1ccc(F)cc1,inactive: 0.982
10,C[C@@H]1CN([C@@H](C)CO)C(=O)c2cccc(NC(=O)c3cnccn3)c2O[C@H]1CN(C)C(=O)NC1CCCCC1,inactive: 0.994
11,Cc1noc(C)c1S(=O)(=O)N(C)C[C@H]1OCCCC[C@H](C)Oc2ccc(NC(=O)Nc3ccc(C(F)(F)F)cc3)cc2C(=O)N([C@H](C)CO)C[C@@H]1C,inactive: 1.01
12,C[C@H](CO)N1C[C@H](C)[C@@H](CN(C)C(=O)Nc2cccc3ccccc23)OCCCC[C@H](C)Oc2ccc(NS(=O)(=O)c3cn(C)cn3)cc2C1=O,inactive: 0.994
13,Cc1nn(-c2nc3c(c(=O)n(CC(N)=O)c(=O)n3C)n2C)c(C)c1C,inactive: 1.02
14,C[C@H]1CN([C@@H](C)CO)C(=O)CCCn2nncc2CO[C@@H]1CN(C)S(=O)(=O)c1cn(C)cn1,inactive: 0.984
15,CCN(CC)C(=O)N1CCN(C)CC1.O=C(O)CC(O)(CC(=O)O)C(=O)O,inactive: 1.1
16,C[C@H](CO)N1C[C@H](C)[C@@H](CN(C)S(=O)(=O)c2ccccc2)Oc2ncc(C#CC3(O)CCCC3)cc2C1=O,inactive: 0.954
17,Nc1ncnc2c1ncn2[C@H]1C[C@H](O)[C@@H](CO)O1,inactive: 0.976
18,C[C@@H]1CN([C@H](C)CO)C(=O)c2cccc(NC(=O)Nc3ccc4c(c3)OCO4)c2O[C@@H]1CN(C)C(=O)Nc1ccc(C(F)(F)F)cc1,inactive: 0.968
19,C[C@@H]1CN([C@H](C)CO)S(=O)(=O)c2ccc(C#CCN(C)C)cc2O[C@@H]1CN(C)S(C)(=O)=O,inactive: 1
20,COCC#Cc1cnc2c(c1)C(=O)N([C@@H](C)CO)C[C@H](C)[C@H](CN(C)C(=O)Nc1ccccc1OC)O2,inactive: 0.986
21,C=C(C)C1=NC(C)(C)C[C@H](C)O1,inactive: 0.934

row,SMILES,relative growth
1,Cc1cc(C(=O)Nc2cccc3c2O[C@H](CN(C)Cc2ccc(Oc4ccccc4)cc2)[C@H](C)CN([C@@H](C)CO)C3=O)n(C)n1,inactive: 1.03
2,COc1ccc(S(=O)(=O)Nc2ccc3c(c2)C(=O)N([C@H](C)CO)C[C@H](C)[C@@H](CN(C)C(=O)C2CCCCC2)OCCCC[C@H](C)O3)cc1,inactive: 1.01
3,CCS(=O)(=O)N1CC[C@]2(CC1)CN([C@H](CO)c1c2c2ccc(cc2n1C)OC)C(=O)Nc1c(noc1C)C,inactive: 0.997
4,Cc1noc(C)c1NC(=O)N(C)C[C@H]1Oc2ccc(NC(=O)NC(C)C)cc2C(=O)N([C@@H](C)CO)C[C@@H]1C,inactive: 0.999
5,C[C@@H]1CN([C@@H](C)CO)C(=O)c2cc(NC(=O)Nc3ccccc3)ccc2O[C@@H](C)CCCCO[C@@H]1CN(C)S(=O)(=O)c1ccc(Cl)cc1,inactive: 1.03
6,C[C@@H]1CN([C@H](C)CO)C(=O)c2cc(NS(=O)(=O)c3ccc(F)cc3)ccc2O[C@@H]1CN(C)Cc1ccc(Oc2ccccc2)cc1,inactive: 0.98
7,COc1ccc(S(=O)(=O)Nc2cccc3c2O[C@@H](CN(C)S(=O)(=O)c2c(C)noc2C)[C@@H](C)CN([C@H](C)CO)C3=O)cc1,inactive: 1.01
8,C[C@@H]1CN([C@H](C)CO)C(=O)Cc2cc(NC(=O)Nc3cccc4ccccc34)ccc2O[C@H]1CN(C)S(=O)(=O)c1cccs1,inactive: 1.01
9,COc1ccc(NC(=O)Nc2ccc3c(c2)C(=O)N([C@H](C)CO)C[C@@H](C)[C@@H](CN(C)S(=O)(=O)c2ccc(Cl)cc2)OCCCC[C@H](C)O3)cc1,inactive: 1.05
10,C[C@@H]1CN([C@@H](C)CO)C(=O)c2cc(NC(=O)Nc3ccc(F)cc3)ccc2O[C@H]1CN(C)Cc1ccc(Oc2ccccc2)cc1,inactive: 1.03
11,C[C@@H]1CCCCO[C@@H](CN(C)S(=O)(=O)c2ccc(Cl)cc2)[C@H](C)CN([C@H](C)CO)C(=O)c2cc(NC(=O)CCC(F)(F)F)ccc2O1,inactive: 1.01
12,COc1ccc(S(=O)(=O)Nc2ccc3c(c2)C(=O)N([C@H](C)CO)C[C@@H](C)[C@H](CN(C)C(=O)NC(C)C)O3)cc1,inactive: 1.01
13,C[C@@H]1CCCCO[C@H](CN(C)CC2CCCCC2)[C@H](C)CN([C@H](C)CO)C(=O)c2cc(NS(=O)(=O)c3cccs3)ccc2O1,inactive: 1.04
14,C[C@@H]1CCCCO[C@@H](CN(C)C(=O)NC2CCCCC2)[C@@H](C)CN([C@@H](C)CO)C(=O)c2cc(NC(=O)Nc3cccc4ccccc34)ccc2O1,inactive: 1.01
15,COc1ccc(C=CC(=O)c2ccccc2)cc1,inactive: 0.984
16,COc1cccc(C#Cc2ccc([C@@H]3[C@H]4CN(S(=O)(=O)c5ccccc5C)CC(=O)N4[C@H]3CO)cc2)c1,inactive: 1.04
17,CCCC(=O)Nc1ccc2c(c1)C(=O)N(C)[C@H]1CC[C@H](CC(=O)NCCN3CCCCC3)O[C@H]1CO2,inactive: 1.02
18,CNC[C@@H]1Oc2ccc(NS(=O)(=O)c3cn(C)cn3)cc2CC(=O)N([C@@H](C)CO)C[C@H]1C,inactive: 1.02
19,C[C@@](Cc1ccc(O)c(O)c1)(NN)C(=O)O,inactive: 0.903
20,CC(C)NC(=O)N(C)C[C@H]1Oc2c(NC(=O)Cn3cnnn3)cccc2C(=O)N([C@H](C)CO)C[C@@H]1C,inactive: 0.985

# — the supplement of paper PMC9446081
